Here are results for 5 molecules from PMC10657422.

Chains of the proteins cited; added tags and fusions are not shown.
UniProt Q96704: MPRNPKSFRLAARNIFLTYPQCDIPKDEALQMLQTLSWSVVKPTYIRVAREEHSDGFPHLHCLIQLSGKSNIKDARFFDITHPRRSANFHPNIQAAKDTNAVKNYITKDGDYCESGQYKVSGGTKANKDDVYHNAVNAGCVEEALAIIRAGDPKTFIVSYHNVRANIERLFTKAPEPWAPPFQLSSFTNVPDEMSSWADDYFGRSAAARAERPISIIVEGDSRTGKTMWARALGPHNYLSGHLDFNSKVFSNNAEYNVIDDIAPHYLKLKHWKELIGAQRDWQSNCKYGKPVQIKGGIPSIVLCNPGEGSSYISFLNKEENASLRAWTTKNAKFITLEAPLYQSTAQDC
UniProt Q9M7Q7: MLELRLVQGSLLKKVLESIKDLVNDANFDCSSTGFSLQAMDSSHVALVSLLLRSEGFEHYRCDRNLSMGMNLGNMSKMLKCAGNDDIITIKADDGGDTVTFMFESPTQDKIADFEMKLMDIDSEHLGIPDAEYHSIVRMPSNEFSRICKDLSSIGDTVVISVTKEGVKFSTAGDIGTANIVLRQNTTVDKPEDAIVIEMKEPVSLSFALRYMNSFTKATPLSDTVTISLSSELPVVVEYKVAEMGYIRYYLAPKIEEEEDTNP

Holding throughout (assay): two-hybrid; Gold Yeast Two-Hybrid System (Clontech); pGADT7 and pGBKT7 fusions co-transformed into yeast strain AH109; growth on medium minus Leu, Trp, His, Ade; 28 °C
For experiment [1], the target named is Rep (replication protein encoded by Cabbage Leaf Curl Virus), yeast two-hybrid bait (Cabbage Leaf Curl Virus (CaLCuV)) (UniProt Q96704).
The target of experiment [2] is T1, RPA1A (replication protein A 1A), yeast two-hybrid fusion (Arabidopsis thaliana) (UniProt Q9SKI4).
T1 sequence: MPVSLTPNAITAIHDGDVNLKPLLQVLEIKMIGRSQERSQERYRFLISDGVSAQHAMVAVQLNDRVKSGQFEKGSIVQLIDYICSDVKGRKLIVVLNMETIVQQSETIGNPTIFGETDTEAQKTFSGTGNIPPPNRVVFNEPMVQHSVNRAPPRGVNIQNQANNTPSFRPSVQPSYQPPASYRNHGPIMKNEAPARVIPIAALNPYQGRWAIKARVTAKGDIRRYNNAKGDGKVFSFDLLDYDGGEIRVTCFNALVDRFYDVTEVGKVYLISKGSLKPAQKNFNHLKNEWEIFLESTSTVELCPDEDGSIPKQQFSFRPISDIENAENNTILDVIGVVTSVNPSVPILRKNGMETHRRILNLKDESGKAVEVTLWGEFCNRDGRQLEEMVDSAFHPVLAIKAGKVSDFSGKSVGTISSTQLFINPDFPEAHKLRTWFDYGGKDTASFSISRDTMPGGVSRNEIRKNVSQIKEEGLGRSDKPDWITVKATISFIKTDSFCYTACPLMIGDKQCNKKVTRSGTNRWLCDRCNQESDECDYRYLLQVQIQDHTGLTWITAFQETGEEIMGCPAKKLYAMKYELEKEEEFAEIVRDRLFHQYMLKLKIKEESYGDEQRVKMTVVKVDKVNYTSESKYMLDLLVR

Experiment [3] addresses T2, RAD51 (Arabidopsis radiation sensitive 51), yeast two-hybrid fusion (Arabidopsis thaliana) (UniProt P94102).
T2 sequence: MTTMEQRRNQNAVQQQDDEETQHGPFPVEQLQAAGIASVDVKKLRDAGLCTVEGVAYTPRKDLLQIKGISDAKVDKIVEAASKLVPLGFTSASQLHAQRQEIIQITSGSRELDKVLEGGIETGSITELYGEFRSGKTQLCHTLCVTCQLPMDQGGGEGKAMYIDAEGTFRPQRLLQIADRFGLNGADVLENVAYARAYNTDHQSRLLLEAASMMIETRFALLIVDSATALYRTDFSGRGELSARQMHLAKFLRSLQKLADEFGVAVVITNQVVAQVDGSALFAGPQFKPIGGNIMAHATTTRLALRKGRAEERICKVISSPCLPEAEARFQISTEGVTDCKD

These are yes or no findings as the source states them, for the method shown. Some results given as binding are weak or reduced against the parent protein; the word gives no strength. Sequences can lack the tags named with a protein.

Turning to “PCNA1 (proliferating cell nuclear antigen 1), yeast two-hybrid fusion (from UniProt Q9M7Q7 1-263)”, in experiment [1], the binding entry is given as “binds”.

B1: CYCB1;1 (B1 type cyclin), yeast two-hybrid fusion (protein, UniProt P30183 1-428)
chain: MMTSRSIVPQQSTDDVVVVDGKNVAKGRNRQVLGDIGNVVRGNYPKNNEPEKINHRPRTRSQNPTLLVEDNLKKPVVKRNAVPKPKKVAGKPKVVDVIEISSDSDEELGLVAAREKKATKKKATTYTSVLTARSKAACGLEKKQKEKIVDIDSADVENDLAAVEYVEDIYSFYKSVESEWRPRDYMASQPDINEKMRLILVEWLIDVHVRFELNPETFYLTVNILDRFLSVKPVPRKELQLVGLSALLMSAKYEEIWPPQVEDLVDIADHAYSHKQILVMEKTILSTLEWYLTVPTHYVFLARFIKASIADEKMENMVHYLAELGVMHYDTMIMFSPSMVAASAIYAARSSLRQVPIWTSTLKHHTGYSETQLMDCAKLLAYQQWKQQEEGSESSTKGALRKKYSKDERFAVALIPPAKALLTGTESA
For the molecule B1, the binding result in experiment [2] was “no binding”; in experiment [3] it was “binds”.

B2: RPA1A (replication protein A 1A), yeast two-hybrid fusion (protein, UniProt Q9SKI4 1-640)
chain: T1 sequence
On to B2, for which the binding result in experiment [1] was “binds”.

B3: BRCA1 (breast cancer susceptibility gene 1), yeast two-hybrid fusion (protein, UniProt Q8RXD4 1-941)
chain: MADTSHLERMGRELKCPICLSLYNSAVSLSCNHVFCNACIVKSMKMDATCPVCKIPYHRREIRGAPHMDSLVSIYKNMEDASGIKLFVSQNNPSPSDKEKQVRDASVEKASDKNRQGSRKGRASKRNEYGKTKEIDVDAPGPIVMKPSSQTKKRVQLLQNLSAESLTKPTESVETAEKPKDYTENTVIRLDEHPSLNKEGNLSPFFWLRDEDDGENSSQRTESDQLLGTTPVNVPSFSDLMDSDHESPSKEDEQQKPNPGDMFDSEMFEWTQRPCSPEILPSPVKAKVLGRDEIDLTQKKLPKVKVASSKCKNRKAGSARNTVARRSIGVSQEDNMESSAAATISEQQDSRGTSGTIIRNDVNTDENVKAKRATRSKAQSTRVQSDLNVSNEADGKQGTKRKRSSIKSSPAHPIAGPNELSLGTEIVGKGDQDQAHGPSDTHPEKRSPTEKPSLKKRGRKSNASSSLKDLSGKTQKKTSEKKLKLDSHMISSKATQPHGNGILTAGLNQGGDKQDSRNNRKSTVGKDDHTMQVIEKCSTINKSSSGGSAHLRRCNGSLTKKFTCAFCQCSEDTEASGEMTHYYRGEPVSADFNGGSKVIHVHKNCAEWAPNVYFNDLTIVNLDVELTRSRRISCSCCGLKGAALGCYNKSCKNSFHVTCAKLIPECRWDNVKFVMLCPLDASIKLPCEEANSKDRKCKRTPKEPLHSQPKQVSGKANIRELHIKQFHGFSKKLVLSCSGLTVEEKTVIAEFAELSGVTISKNWDSTVTHVIASINENGACKRTLKFMMAILEGKWILTIDWIKACMKNTKYVSEEPYEITMDVHGIREGPYLGRQRALKKKPKLFTGLKFYIMGDFELAYKGYLQDLIVAAGGTILRRRPVSSDDNEASTIVVFSVEPSKKKTLTQRRSDAEALAKSARARAASSSWVLDSIAGCQILVLI
B3: the binding entry in experiment [2] is “no binding”; in experiment [3], “binds”.

B4: RAD51 (Arabidopsis radiation sensitive 51), yeast two-hybrid fusion (protein, UniProt P94102 1-342)
chain: T2 sequence
For the molecule B4, in experiment [1], the binding entry is on record as “binds”.
